Molecules are shown by their SMILES.

The subject of experiment [1] is grape downy mildew fungus (Plasmopara viticola). As to the kind of experiment: Test Example G: grape downy mildew, spray treatment of grape plants. The following applies: grape downy mildew, 250 ppm spray, 7 to 10 days after inoculation.
Experiment [2] concerns barley powdery mildew fungi (Blumeria graminis f. sp. hordei). As to the kind of experiment: Test Example D: barley powdery mildew, spray treatment of barley plants. The note with it: barley powdery mildew, spray treatment.
Experiment [3] concerns gray mold fungi (Botrytis cinerea). As to the kind of experiment: Test Example B: tomato gray mold, spray treatment of tomato plants. The following applies: tomato gray mold, spray treatment.
For experiment [4], the system named is cabbage Alternaria sooty spot fungi (Alternaia brassicicola). As to the kind of experiment: Test Example C: cabbage Alternaria sooty spot, spray treatment of cabbage plants. Format: in vivo. The note with it: cabbage Alternaria sooty spot, spray treatment. The text has this: [Test Example C] Cabbage Alternaria Sooty Spot
Test plants (cabbage variety: Shikidori) were cultivated until the cotyledons extended after the sowing of seeds.
<Control Value> Control value=100{1−(n/3)}

Experiment [5] has as its system wheat brown rust fungi (Puccinia recondita). As to the kind of experiment: Test Example E: wheat brown rust, spray treatment of wheat plants. Format: in vivo. The following applies: wheat brown rust, spray treatment.

Regarding `Cc1cn(-c2ccccc2C(C)C)c(-c2c(F)cc(F)cc2F)c(C)c1=O` [Compound 397], in experiment [1], the “Test G control value” was “L (L shows the control value of 50% or less)”. The “Test D control value” in experiment [2] is on record as “L (L shows the control value of 50% or less)”. The “Test B control value” in experiment [3] is “L (L shows the control value of 50% or less)”. Also, in experiment [4], the “Test C control value” was “H (H shows the control value of more than 50%)”. Besides, in experiment [5], the “Test E control value” was “L (L shows the control value of 50% or less)”.
Regarding `Cc1ccc(F)cc1-n1cc(Br)c(=O)c(C)c1-c1ccccc1` [Compound 398], the “Test G control value” in experiment [1] is “L (L shows the control value of 50% or less)”. Besides, the “Test D control value” in experiment [2] was “L (L shows the control value of 50% or less)”. Besides, the “Test B control value” in experiment [3] is “L (L shows the control value of 50% or less)”. Further, in experiment [4], the “Test C control value” is reported as “L (L shows the control value of 50% or less)”. Further, the “Test E control value” in experiment [5] is given as “H (H shows the control value of more than 50%)”.
On to `Cc1ccc(F)cc1-n1cc(Br)c(=O)c(Cl)c1-c1ccccc1` [Compound 399], for which, in experiment [1], the “Test G control value” was “L (L shows the control value of 50% or less)”. The “Test D control value” in experiment [2] is “L (L shows the control value of 50% or less)”. Further, the “Test B control value” in experiment [3] is reported as “L (L shows the control value of 50% or less)”. Moreover, the “Test C control value” in experiment [4] is on record as “L (L shows the control value of 50% or less)”. Also, the “Test E control value” in experiment [5] is listed as “L (L shows the control value of 50% or less)”.
Regarding `COc1ccc(C)c(-n2cc(Br)c(=O)c(C)c2-c2ccccc2)c1` [Compound 400], in experiment [1], the “Test G control value” is given as “H (H shows the control value of more than 50%)”. In addition, the “Test D control value” in experiment [2] was “L (L shows the control value of 50% or less)”. The “Test B control value” in experiment [3] is reported as “H (H shows the control value of more than 50%)”. Moreover, the “Test C control value” in experiment [4] was “H (H shows the control value of more than 50%)”. The “Test E control value” in experiment [5] is on record as “H (H shows the control value of more than 50%)”.
Take `COc1cc(F)c(-c2c(C)c(=O)c(C)cn2-c2cc(C)ccc2C)c(F)c1` [Compound 401]: in experiment [1], the “Test G control value” was “H (H shows the control value of more than 50%)”. The “Test D control value” in experiment [2] is reported as “H (H shows the control value of more than 50%)”. Further, the “Test B control value” in experiment [3] is recorded as “H (H shows the control value of more than 50%)”. The “Test C control value” in experiment [4] was “H (H shows the control value of more than 50%)”. Moreover, the “Test E control value” in experiment [5] is on record as “H (H shows the control value of more than 50%)”.
For the molecule `Cc1ccc(C)c(-n2cc(C)c(=O)c(C)c2-c2c(F)cccc2F)c1` [Compound 402], the “Test G control value” in experiment [1] is “L (L shows the control value of 50% or less)”. In addition, the “Test D control value” in experiment [2] is recorded as “L (L shows the control value of 50% or less)”. Also, in experiment [3], the “Test B control value” is listed as “H (H shows the control value of more than 50%)”. The “Test C control value” in experiment [4] is “L (L shows the control value of 50% or less)”. The “Test E control value” in experiment [5] was “H (H shows the control value of more than 50%)”.
Consider `Cc1ccc(C)c(-n2cc(C)c(=O)c(C)c2-c2c(F)cc(O)cc2F)c1` [Compound 403], for which the “Test G control value” in experiment [1] is reported as “L (L shows the control value of 50% or less)”. Further, in experiment [2], the “Test D control value” is given as “L (L shows the control value of 50% or less)”. Moreover, the “Test B control value” in experiment [3] is on record as “H (H shows the control value of more than 50%)”. The “Test C control value” in experiment [4] is reported as “H (H shows the control value of more than 50%)”. The “Test E control value” in experiment [5] is reported as “H (H shows the control value of more than 50%)”.
As for `Cc1ccc(C)c(-n2cc(C)c(=O)c(C)c2-c2ccccc2)c1` [Compound 404], the “Test G control value” in experiment [1] was “H (H shows the control value of more than 50%)”. In experiment [2], the “Test D control value” is “L (L shows the control value of 50% or less)”. Further, the “Test B control value” in experiment [3] is “H (H shows the control value of more than 50%)”. Also, in experiment [4], the “Test C control value” is listed as “L (L shows the control value of 50% or less)”. In addition, the “Test E control value” in experiment [5] was “H (H shows the control value of more than 50%)”.
`C#CCOc1cc(F)c(-c2c(C)c(=O)c(C)cn2-c2cc(C)ccc2C)c(F)c1` [Compound 406]: in experiment [1], the “Test G control value” is given as “H (H shows the control value of more than 50%)”. Besides, in experiment [2], the “Test D control value” is given as “H (H shows the control value of more than 50%)”. Moreover, in experiment [3], the “Test B control value” is reported as “H (H shows the control value of more than 50%)”. The “Test C control value” in experiment [4] was “H (H shows the control value of more than 50%)”. Also, the “Test E control value” in experiment [5] is given as “H (H shows the control value of more than 50%)”.
As to `CC(=O)Oc1cc(F)c(-c2c(C)c(=O)c(C)cn2-c2cc(C)ccc2C)c(F)c1` [Compound 407], the “Test G control value” in experiment [1] is “L (L shows the control value of 50% or less)”. In experiment [2], the “Test D control value” is recorded as “L (L shows the control value of 50% or less)”. In addition, the “Test B control value” in experiment [3] is reported as “H (H shows the control value of more than 50%)”. Besides, in experiment [4], the “Test C control value” is reported as “L (L shows the control value of 50% or less)”. Besides, the “Test E control value” in experiment [5] is “H (H shows the control value of more than 50%)”.
Consider `Cc1ccc(-c2c(Cl)c(=O)c(Br)cn2-c2ccccc2C)cc1` [Compound 409], for which, in experiment [1], the “Test G control value” is given as “L (L shows the control value of 50% or less)”. Moreover, the “Test D control value” in experiment [2] is reported as “L (L shows the control value of 50% or less)”. Besides, the “Test B control value” in experiment [3] was “L (L shows the control value of 50% or less)”. For the same molecule, in experiment [4], the “Test C control value” is reported as “L (L shows the control value of 50% or less)”. The “Test E control value” in experiment [5] is given as “H (H shows the control value of more than 50%)”.
As for `Cc1ccc(-c2c(Cl)c(=O)c(Cl)cn2-c2ccccc2C)cc1` [Compound 411], the “Test G control value” in experiment [1] is reported as “L (L shows the control value of 50% or less)”. In experiment [2], the “Test D control value” is “L (L shows the control value of 50% or less)”. Moreover, the “Test B control value” in experiment [3] is given as “L (L shows the control value of 50% or less)”. For the same molecule, the “Test C control value” in experiment [4] is given as “L (L shows the control value of 50% or less)”. Besides, the “Test E control value” in experiment [5] was “H (H shows the control value of more than 50%)”.
For the molecule `Cc1c(F)cccc1-n1cc(Br)c(=O)c(C)c1-c1ccccc1` [Compound 412], in experiment [1], the “Test G control value” was “L (L shows the control value of 50% or less)”. Also, the “Test D control value” in experiment [2] was “L (L shows the control value of 50% or less)”. Further, the “Test B control value” in experiment [3] is “H (H shows the control value of more than 50%)”. The “Test C control value” in experiment [4] was “H (H shows the control value of more than 50%)”. The “Test E control value” in experiment [5] is recorded as “H (H shows the control value of more than 50%)”.
In the case of `Cc1c(F)cccc1-n1cc(Br)c(=O)c(Cl)c1-c1ccccc1` [Compound 413], the “Test G control value” in experiment [1] is recorded as “L (L shows the control value of 50% or less)”. Moreover, the “Test D control value” in experiment [2] is on record as “L (L shows the control value of 50% or less)”. Also, in experiment [3], the “Test B control value” is given as “H (H shows the control value of more than 50%)”. Moreover, the “Test C control value” in experiment [4] is “L (L shows the control value of 50% or less)”. In addition, the “Test E control value” in experiment [5] was “H (H shows the control value of more than 50%)”.
As to `Cc1c(-c2ccccc2)n(-c2cc(F)ccc2Cl)cc(Br)c1=O` [Compound 415], the “Test G control value” in experiment [1] is “H (H shows the control value of more than 50%)”. For the same molecule, in experiment [2], the “Test D control value” was “L (L shows the control value of 50% or less)”. Moreover, in experiment [3], the “Test B control value” is “H (H shows the control value of more than 50%)”. Further, in experiment [4], the “Test C control value” is reported as “H (H shows the control value of more than 50%)”. In experiment [5], the “Test E control value” was “H (H shows the control value of more than 50%)”.
Turning to `Cc1cn(-c2cc(F)ccc2Cl)c(-c2ccccc2)c(C)c1=O` [Compound 416], the “Test G control value” in experiment [1] is “L (L shows the control value of 50% or less)”. In addition, the “Test D control value” in experiment [2] is recorded as “L (L shows the control value of 50% or less)”. Also, the “Test B control value” in experiment [3] is listed as “H (H shows the control value of more than 50%)”. For the same molecule, the “Test C control value” in experiment [4] is “H (H shows the control value of more than 50%)”. For the same molecule, the “Test E control value” in experiment [5] is reported as “H (H shows the control value of more than 50%)”.
`O=c1c(Br)cn(-c2cc(F)ccc2Cl)c(-c2ccccc2)c1Cl` [Compound 417]: in experiment [1], the “Test G control value” is recorded as “H (H shows the control value of more than 50%)”. Also, in experiment [2], the “Test D control value” is recorded as “L (L shows the control value of 50% or less)”. Also, in experiment [3], the “Test B control value” is listed as “H (H shows the control value of more than 50%)”. Also, the “Test C control value” in experiment [4] was “H (H shows the control value of more than 50%)”. Besides, in experiment [5], the “Test E control value” is “H (H shows the control value of more than 50%)”.
For the molecule `Cc1c(O)cccc1-n1cc(Br)c(=O)c(Br)c1-c1c(F)cc(F)cc1F` [Compound 419], the “Test G control value” in experiment [1] is listed as “H (H shows the control value of more than 50%)”. Besides, the “Test D control value” in experiment [2] is “L (L shows the control value of 50% or less)”. Also, the “Test B control value” in experiment [3] is on record as “H (H shows the control value of more than 50%)”. Moreover, the “Test C control value” in experiment [4] is “H (H shows the control value of more than 50%)”. Moreover, the “Test E control value” in experiment [5] was “H (H shows the control value of more than 50%)”.
As for `Cc1c(-n2cc(Cl)c(=O)c(Cl)c2-c2c(F)cc(F)cc2F)cccc1[N+](=O)[O-]` [Compound 420], the “Test G control value” in experiment [1] is on record as “L (L shows the control value of 50% or less)”. Besides, the “Test D control value” in experiment [2] is recorded as “L (L shows the control value of 50% or less)”. The “Test B control value” in experiment [3] is “H (H shows the control value of more than 50%)”. Moreover, the “Test C control value” in experiment [4] is on record as “H (H shows the control value of more than 50%)”. Moreover, the “Test E control value” in experiment [5] is on record as “H (H shows the control value of more than 50%)”.

(Values after US11000038B2, “Pyridone compounds and agricultural and horticultural fungicides containing the same as active ingredients” (priority 2017, dated 2021).)
